{
  "source": "paper PMC6919601",
  "about": "“Identification of Plasmodium dipeptidyl aminopeptidase allosteric inhibitors by high throughput screening” (PLoS ONE, 2019)",
  "note": "About 230 (0.21%) of roughly 110,000 compounds showed an effect of 50% or more. The list shows a part of the results.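 Further: 30 min substrate incubation versus DMSO and 10 µM JCP410 controls.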",
  "data": [
    {"target": "DPAP1 (Plasmodium falciparum, UniProt Q8IIJ9)", "sequence (Q8IIJ9 whole entry, looked up)": "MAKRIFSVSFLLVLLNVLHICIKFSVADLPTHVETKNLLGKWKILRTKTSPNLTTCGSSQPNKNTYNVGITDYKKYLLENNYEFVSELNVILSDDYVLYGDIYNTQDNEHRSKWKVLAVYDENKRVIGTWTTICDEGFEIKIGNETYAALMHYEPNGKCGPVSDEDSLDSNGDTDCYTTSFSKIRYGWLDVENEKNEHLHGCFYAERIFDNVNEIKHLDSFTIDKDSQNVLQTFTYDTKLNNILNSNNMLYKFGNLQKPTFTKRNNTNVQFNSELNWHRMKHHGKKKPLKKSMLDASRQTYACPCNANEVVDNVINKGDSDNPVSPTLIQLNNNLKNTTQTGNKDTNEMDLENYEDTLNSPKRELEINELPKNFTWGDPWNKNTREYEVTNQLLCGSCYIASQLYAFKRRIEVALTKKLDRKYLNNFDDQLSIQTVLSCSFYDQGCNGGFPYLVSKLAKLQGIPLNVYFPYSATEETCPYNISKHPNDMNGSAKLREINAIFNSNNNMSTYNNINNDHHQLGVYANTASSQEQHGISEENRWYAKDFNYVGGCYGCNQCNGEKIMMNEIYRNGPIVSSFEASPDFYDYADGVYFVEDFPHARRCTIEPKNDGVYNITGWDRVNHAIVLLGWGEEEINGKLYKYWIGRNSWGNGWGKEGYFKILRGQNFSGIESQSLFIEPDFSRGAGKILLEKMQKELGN", "assay": "primary screen, percent inhibition; read by cleavage of a fluorogenic dipeptide substrate; higher = more effect of the substance", "parameters": "species or system P. falciparum D10 trophozoite lysates; single well", "units": {"% Inhibition @ 10 uM": "%"}, "values": [
      {"smiles": "CCN(CC)S(=O)(=O)c1cc(-c2nnc(-c3ccc(Br)cc3)o2)ccc1Cl", "% Inhibition @ 10 uM": 20.3},
      {"smiles": "Cc1ccc2[nH]c3c(c2c1)CCOc1ccccc1-3", "% Inhibition @ 10 uM": -4.3},
      {"smiles": "CN(C)c1ccc2c(c1)OC(N)=C(C#N)C2c1cccs1", "note": "(centres unmarked)", "% Inhibition @ 10 uM": -3.85},
      {"smiles": "Cc1ccc(-c2nc(N)n(S(=O)(=O)c3ccc(C)cc3)n2)cc1", "% Inhibition @ 10 uM": -1.11},
      {"smiles": "CC(C)CN(CC(C)C)C(=O)c1cc(S(=O)(=O)N2CCCCC2)c[nH]1", "% Inhibition @ 10 uM": 2.27},
      {"smiles": "COc1ccc(Cn2c(C(=O)O)c(CNCCc3cccs3)c3ccccc32)cc1", "% Inhibition @ 10 uM": 5.94},
      {"smiles": "N#CC1=C(N)Oc2nc(SCc3ccccc3)nc(O)c2C1c1ccccc1", "note": "(centres unmarked)", "% Inhibition @ 10 uM": -2.54},
      {"smiles": "CC(NC(=O)C1CCN(c2ncnc3c2sc2cccc(F)c23)CC1)c1ccccc1", "note": "(centres unmarked)", "% Inhibition @ 10 uM": 5.73},
      {"smiles": "O=C(Nc1ccc(Cl)c(C(F)(F)F)c1)c1ccc([N+](=O)[O-])cc1Cl", "% Inhibition @ 10 uM": 7.2},
      {"smiles": "c1ccc(NC2=Nc3ccccc3CCC2)cc1", "% Inhibition @ 10 uM": 2.86},
      {"smiles": "CCN(CC)CCN(C)C1CCN(CCc2ccccc2)CC1", "% Inhibition @ 10 uM": -5.11},
      {"smiles": "COc1cccc(OC)c1C(=O)N1CCNCC1", "% Inhibition @ 10 uM": -2.97},
      {"smiles": "CC(=O)Nc1ccc(NC(=O)CN2CCN(CC(=O)Nc3ccc(NC(C)=O)cc3)CC2)cc1", "% Inhibition @ 10 uM": -3.04},
      {"smiles": "Brc1ccc(-c2csc3ncnc(N4CCOCC4)c23)cc1", "% Inhibition @ 10 uM": -5.31},
      {"smiles": "Cc1nn(CC(=O)NC(C)c2ccccc2)c(=O)c2cccn12", "note": "(centres unmarked)", "% Inhibition @ 10 uM": 1.76},
      {"smiles": "Nc1ccc(C(=O)Nc2cccc(-c3nc4ccccc4o3)c2)cc1", "% Inhibition @ 10 uM": -16.1},
      {"smiles": "CC(C)CC(C(=O)NCC#N)c1cncc(-c2ccc(N3CCN(C=O)CC3)cc2)c1", "note": "(centres unmarked)", "% Inhibition @ 10 uM": -6.46},
      {"smiles": "COc1cc(/C=N/n2cnnc2)cc(OC)c1OC", "% Inhibition @ 10 uM": 1.39},
      {"smiles": "CC1CCCCN1c1ncnc2c1oc1ccccc12", "note": "(centres unmarked)", "% Inhibition @ 10 uM": 3.32},
      {"smiles": "Cc1cc(C)n(-c2ccc3nn(-c4ccccc4)nc3c2)n1", "% Inhibition @ 10 uM": 4.65},
      {"smiles": "Oc1ccc(CN2CCC(O)CC2)cc1", "% Inhibition @ 10 uM": 2.23},
      {"smiles": "CN(Cc1ccccc1)S(=O)(=O)c1ccc([N+](=O)[O-])cc1", "% Inhibition @ 10 uM": 5.69},
      {"smiles": "Cc1occc1C(=O)Nc1nc2ccc(Cl)cc2s1", "% Inhibition @ 10 uM": 5.42},
      {"smiles": "CC1(C)CC(OC(=O)c2ccccc2)CC(C)(C)N1OC(=O)c1ccco1", "% Inhibition @ 10 uM": -3.04},
      {"smiles": "CCN(CC)S(=O)(=O)c1ccc(NC(=O)C2CCCO2)cc1", "note": "(centres unmarked)", "% Inhibition @ 10 uM": -4.15},
      {"smiles": "COc1cc(C)c(CNCc2ccc(OC)c(OC)c2)cc1C", "% Inhibition @ 10 uM": -5.4},
      {"smiles": "Cc1cc(OCC(=O)N2CCCCCC2)cc(C)c1Cl", "% Inhibition @ 10 uM": -2.18},
      {"smiles": "Cc1ccc(C)c(S(=O)(=O)NCc2ccc(C(=O)O)cc2)c1", "% Inhibition @ 10 uM": 0.214},
      {"smiles": "Cc1cccc(-c2nc(SCC(C)C)n[nH]2)c1", "% Inhibition @ 10 uM": -0.99},
      {"smiles": "CCOc1ccc(C2C3C(=NN2C(C)=O)C2CCN3CC2)cc1", "note": "(centres unmarked)", "% Inhibition @ 10 uM": 3.24},
      {"smiles": "Cc1ccc(N(C)C(=O)c2cnn(-c3ccccc3)c2C)c(C)c1", "% Inhibition @ 10 uM": -3.43},
      {"smiles": "Fc1ccc(NCc2[nH]nnc2-c2ccccc2)cc1", "% Inhibition @ 10 uM": -3.85},
      {"smiles": "COc1ccccc1CNC(=O)c1ccc(Br)cc1", "% Inhibition @ 10 uM": -0.636},
      {"smiles": "O=C(COc1ccccc1)N1CCN(C(=O)COc2ccc(Cl)cc2)CC1", "% Inhibition @ 10 uM": 1.26},
      {"smiles": "Cc1ccc(C(=O)NCC(C)NC(=O)c2ccc(C)c(C)c2)cc1C", "note": "(centres unmarked)", "% Inhibition @ 10 uM": 1.08},
      {"smiles": "CCN(CC)C(=O)C1C=C(c2ccccc2)C=CN=C1N(CC)CC", "note": "(centres unmarked)", "% Inhibition @ 10 uM": 0.605},
      {"smiles": "O=C(O)/C=C\\C(=O)Nc1ccccc1C#Cc1ccccc1", "% Inhibition @ 10 uM": -2.28},
      {"smiles": "Cc1c(C(=O)NC2CCS(=O)(=O)C2)oc2ccccc12", "note": "(centres unmarked)", "% Inhibition @ 10 uM": -5.54},
      {"smiles": "Cc1ccccc1S(=O)(=O)Cc1ccc(C(=O)N2CCN(Cc3ccc4c(c3)OCO4)CC2)o1", "% Inhibition @ 10 uM": -8.42},
      {"smiles": "Cc1c(CNCc2ccc(OC(C)C)cc2)c(C(=O)O)c(C)n1Cc1ccccc1", "% Inhibition @ 10 uM": -7.28},
      {"smiles": "CC(=O)Nc1cc(C)nn1C(C)(C)C", "% Inhibition @ 10 uM": -6.62},
      {"smiles": "CCOc1ccccc1C(=O)NC(C)c1ccc2c(c1)OCO2", "note": "(centres unmarked)", "% Inhibition @ 10 uM": -1.04},
      {"smiles": "CC[C@@H](C)[C@H](NC(=O)OCc1ccccc1)C(=O)N[C@@H](CCc1ccccc1)C(=O)c1nc2ccccc2o1", "% Inhibition @ 10 uM": 6.4},
      {"smiles": "Cc1ccc(S(=O)(=O)N(CC(=O)Nc2ccc3c(c2)OCO3)c2ccc(C)c(C)c2)cc1", "% Inhibition @ 10 uM": 3.17},
      {"smiles": "CCO/C(O)=C1/C(C)=Nc2ncnn2C1c1ccc(OC(F)F)c(OCC)c1", "note": "(centres unmarked)", "% Inhibition @ 10 uM": 7.63},
      {"smiles": "CCN(CCN(C)C)Cc1ccc(Cl)cc1", "% Inhibition @ 10 uM": 3.24},
      {"smiles": "CCN1CCN(CC(C)c2ccccc2)CC1", "note": "(centres unmarked)", "% Inhibition @ 10 uM": 1.88},
      {"smiles": "COc1ccc(C2C(C(=O)c3ccccc3)=C(O)C(=O)N2CCN2CCOCC2)c(OC)c1", "note": "(centres unmarked)", "% Inhibition @ 10 uM": 2.17},
      {"smiles": "Cc1ccc(C(c2c(O)nc(S)nc2O)N2CCCC(C)C2)cc1", "note": "(centres unmarked)", "% Inhibition @ 10 uM": 3.51},
      {"smiles": "Cc1nn(C)c2c1c(C(F)(F)F)cc(=O)n2CC(=O)NCc1ccccc1", "% Inhibition @ 10 uM": -1.74},
      {"smiles": "Cc1c(Cl)cccc1NC(=O)CSc1nc2ccccc2[nH]1", "% Inhibition @ 10 uM": 6.86},
      {"smiles": "Cc1ccc(NC(=O)CCc2nnc3ccc(N4CCN(C)CC4)nn23)nc1", "% Inhibition @ 10 uM": -5.85},
      {"smiles": "COc1ccc(C(=O)/C=C/c2oc3cc(C)ccc3c2C)c(O)c1", "% Inhibition @ 10 uM": -0.0267},
      {"smiles": "CCn1c(C(=O)O)c(CNCCC2=CCCCC2)c2ccccc21", "% Inhibition @ 10 uM": 3.54},
      {"smiles": "CCC(C)c1c(O)nc(SCC(=O)N(CC)CC)nc1O", "note": "(centres unmarked)", "% Inhibition @ 10 uM": -6.44},
      {"smiles": "CSc1nc(Oc2cccc3ccccc23)cc(-n2nc(C)c(C#N)c2N)n1", "% Inhibition @ 10 uM": 2.44},
      {"smiles": "Cc1c(C)c2ccc(OC3CCCCC3=O)cc2oc1=O", "note": "(centres unmarked)", "% Inhibition @ 10 uM": -3.64},
      {"smiles": "CC1=C(C(=O)N2CCN(C(=O)c3ccco3)CC2)C2(CCC(C)CC2)OC1=O", "note": "(centres unmarked)", "% Inhibition @ 10 uM": -0.354},
      {"smiles": "CN(CC/C=C1/c2ccccc2CSc2ccccc21)CCCO", "% Inhibition @ 10 uM": -16},
      {"smiles": "COc1cccc(S(=O)(=O)NCc2ccc(C(=O)N3CCN(c4ccccc4)CC3)cc2)c1", "% Inhibition @ 10 uM": 0.161},
      {"smiles": "Cc1cc(C(=O)N2CC(C)CC(C)C2)c2c(C)nn(-c3ccccc3)c2n1", "note": "(centres unmarked)", "% Inhibition @ 10 uM": -4.97},
      {"smiles": "COc1cccc(C2C(C#N)=C(N)Oc3cc(N)ccc32)c1OC", "note": "(centres unmarked)", "% Inhibition @ 10 uM": 3.54},
      {"smiles": "CCC(Sc1nc(-c2ccc(OC)cc2)nc2c1c(=O)n(C)c(=O)n2C)C(=O)O", "note": "(centres unmarked)", "% Inhibition @ 10 uM": 2.34},
      {"smiles": "N#CC1=C(N)N(c2c(F)cccc2F)C2=C(C(=O)CCC2)C1c1cccnc1", "note": "(centres unmarked)", "% Inhibition @ 10 uM": -4.76},
      {"smiles": "Cc1nnc(N2C(=O)c3oc4ccccc4c(=O)c3C2c2ccc(O)cc2)s1", "note": "(centres unmarked)", "% Inhibition @ 10 uM": -6.23}
    ]}
  ]
}
